Assay results: patent US10294218B2 (VIROSTATICS SRL, priority 2012, dated 2019)

Tested on: Primary T cells
Assay: Cytotoxicity, percentage of viable cells by flow cytometry
Assay type: cell-based
Procedure: Primary T cells are cultured and treated with different concentrations of the test compound. Viability is analysed by measuring through flow cytometry based techniques the percentage of viable cells, compared to untreated control=100%). Toxic dose 50% (TD50) is calculated.
In Tables 2, 3 and 4, ND means Not Determined.

Compound | TD50 (Toxic dose 50%) [µM]
CCOc1cc(F)ccc1-c1cc(Nc2cc(F)c(OC)c(C(N)=O)c2)ncn1 [Example 139, 5-[6-(2-Ethoxy-4-fluoro-phenyl)-pyrimidin-4-ylamino]-3-fluoro-2-methoxy-benzamide] | >20
COc1ccc(Nc2cc(-c3ccccc3OC)ncn2)cc1CN [Example 43, N-(3-(Aminomethyl)-4-methoxyphenyl)-6-(2-methoxyphenyl)pyrimidin-4-amine] | 2
CCOc1ccc(Nc2cc(-c3ccccc3OC)ncn2)cc1C(N)=O [Example 111, 2-Ethoxy-5-[6-(2-methoxy-phenyl)-pyrimidin-4-ylamino]-benzamide] | 12
COc1ccc(Nc2cc(-c3ccccc3OC)ncn2)cc1CNc1ccccc1 [Example 34, N-(4-Methoxy-3-((phenylamino)methyl)phenyl)-6-(2-methoxyphenyl)pyrimidin-4-amine] | >5
COc1ccc(Nc2cc(-c3ccccc3OCc3ccccc3)ncn2)cc1N [Example 71, N^1-[6-(2-Benzyloxy-phenyl)-pyrimidin-4-yl]-4-methoxy-benzene-1,3-diamine] | >10
COc1ccc(Nc2cc(-c3ccccc3OC)ncn2)cc1C=O [Example 29, 2-Methoxy-5-(6-(2-methoxyphenyl)pyrimidin-4-ylamino)benzaldehyde] | >0.5
COc1ccc(Nc2cc(-c3ccccc3OC(C)C)ncn2)cc1N [Example 79, N^1-[6-(2-Isopropoxy-phenyl)-pyrimidin-4-yl]-4-methoxy-benzene-1,3-diamine] | 15
COc1ccc(Nc2cc(-c3ccccc3OC)ncn2)cc1CO [Example 24, (2-Methoxy-5-(6-(2-methoxyphenyl)pyrimidin-4-ylamino)phenyl)methanol] | >0.5
COc1cc(F)c(Nc2cc(-c3ccccc3OC)ncn2)cc1N [Example 92, 4-Fluoro-6-methoxy-N^3-[6-(2-methoxy-phenyl)-pyrimidin-4-yl]-benzene-1,3-diamine] | >20
COc1cc(F)c(Nc2cc(-c3ccccc3OC)ncn2)cc1C(N)=O [Example 143, 4-Fluoro-2-methoxy-5-[6-(2-methoxy-phenyl)-pyrimidin-4-ylamino]-benzamide] | 15
CNC(=O)c1ccc(Nc2cc(-c3ccccc3OC)ncn2)cc1OC [Example 134, 2-Methoxy-4-[6-(2-methoxy-phenyl)-pyrimidin-4-ylamino]-N-methylbenzamide] | >10
COc1ccc(Nc2cc(-c3ccccc3OC)ncn2)cc1C(=O)NCc1ccncc1 [Example 28, 2-Methoxy-5-(6-(2-methoxyphenyl)pyrimidin-4-ylamino)-N-(pyridin-4-ylmethyl)benzamide] | >0.5
CCOC(=O)c1cc(Nc2cc(-c3ccccc3OC)ncn2)ccc1Cl [Example 14, Ethyl 2-chloro-5-(6-(2-methoxyphenyl)pyrimidin-4-ylamino)benzoate] | >0.5
CCOc1ccc(Nc2cc(-c3ccc(F)cc3OC)ncn2)cc1C(N)=O [Example 112, 2-Ethoxy-5-[6-(4-fluoro-2-methoxy-phenyl)-pyrimidin-4-ylamino]-benzamide] | 10
COc1ccccc1-c1cc(Nc2ccc(N3CCN(C)CC3)c(Cn3cnc4ccccc43)c2)ncn1 [Example 2, N-(3-((1H-Benzo[d]imidazol-1-yl)methyl)-4-(4-methylpiperazin-1-yl)phenyl)-6-(2-methoxyphenyl)pyrimidin-4-amine] | 0.4
COc1ccc(Nc2cc(-c3ccccc3OC)ncn2)cc1C(N)=O [Example 45, 2-methoxy-5-(6-(2-methoxyphenyl)pyrimidin-4-ylamino)benzamide] | 15
COc1ccc(Nc2cc(-c3ccc(F)cc3OC)ncn2)cc1C(N)=O [Example 128, 5-[6-(4-Fluoro-2-methoxy-phenyl)-pyrimidin-4-ylamino]-2-methoxy-benzamide] | 5
CCOc1ccc(F)cc1-c1cc(Nc2cc(F)c(OC)c(C(N)=O)c2)ncn1 [Example 142, 5-[6-(2-Ethoxy-5-fluoro-phenyl)-pyrimidin-4-ylamino]-3-fluoro-2-methoxy-benzamide] | >20
COc1ccc(Nc2cc(-c3ccc(F)cc3OC)ncn2)cc1N [Example 64] | 5
CCOc1ccc(Nc2cc(-c3ccccc3OC)ncn2)cc1N [Example 101, 4-Ethoxy-N^1-[6-(2-methoxy-phenyl)-pyrimidin-4-yl]-benzene-1,3-diamine] | 12
COc1cc(F)ccc1-c1cc(Nc2cc(N)c(OC)c(F)c2)ncn1 [Example 90, 5-Fluoro-N^1-[6-(4-fluoro-2-methoxy-phenyl)-pyrimidin-4-yl]-4-methoxy-benzene-1,3-diamine] | >20
CN1CC[C@H](c2c(O)cc(O)c3c(=O)cc(-c4ccccc4Cl)oc23)[C@H](O)C1 [Flavopiridol, reference compound] | 0.1

Compound | TD50 (Toxic dose 50%) [µM]
COc1ccc(Nc2cc(-c3ccccc3OC)ncn2)cc1C(=O)NN [Example 33, 2-Methoxy-5-(6-(2-methoxyphenyl)pyrimidin-4-ylamino)benzohydrazide] | >5
CCOc1ccccc1-c1cc(Nc2ccc(OC)c(C(N)=O)c2)ncn1 [Example 129, 5-[6-(2-Ethoxy-phenyl)-pyrimidin-4-ylamino]-2-methoxy-benzamide] | 5
COC(=O)c1cc(Nc2cc(-c3ccccc3OC)ncn2)ccc1OC [Example 30, Methyl 2-methoxy-5-(6-(2-methoxyphenyl)pyrimidin-4-ylamino)benzoate] | >0.5
COc1ccc(Nc2cc(-c3ccccc3Oc3ccccc3)ncn2)cc1N [Example 77, 4-Methoxy-N^1-[6-(2-phenoxy-phenyl)-pyrimidin-4-yl]-benzene-1,3-diamine] | 10
COc1ccc(Nc2cc(-c3ccccc3OC)ncn2)cc1N [Example 41, 4-Methoxy-N1-(6-(2-methoxyphenyl)pyrimidin-4-yl)benzene-1,3-diamine] | 8.5
COc1ccc(Nc2cc(-c3ccccc3OC)ncn2)cc1C(=O)O [Example 49, 2-Methoxy-5-[6-(2-methoxy-phenyl)-pyrimidin-4-ylamino]-benzoic acid] | >10
CCOc1ccccc1-c1cc(Nc2cc(F)c(OC)c(C(N)=O)c2)ncn1 [Example 141, 5-[6-(2-Ethoxy-phenyl)-pyrimidin-4-ylamino]-3-fluoro-2-methoxy-benzamide] | >20
COc1ccccc1-c1cc(Nc2ccc(Cl)c(CO)c2)ncn1 [Example 6, (2-Chloro-5-(6-(2-methoxyphenyl)pyrimidin-4-ylamino)phenyl)methanol] | >0.5
COc1ccc(Nc2cc(-c3ccccc3OC)ncn2)cc1NS(C)(=O)=O [Example 9, N-(2-Methoxy-5-(6-(2-methoxyphenyl)pyrimidin-4-ylamino)phenyl)methanesulfonamide] | >1.5
COc1ccccc1-c1cc(Nc2ccc(N(C)C)c(Cn3cnc4ccccc43)c2)ncn1 [Example 42, 2-((1H-Benzo[d]imidazol-1-yl)methyl)-N4-(6-(2-methoxyphenyl)pyrimidin-4-yl)-N1,N1-dimethylbenzene-1,4-diamine] | 4
COc1ccccc1-c1cc(Nc2ccc(N3CCN(C)CC3)c(S(N)(=O)=O)c2)ncn1 [Example 38, 5-(6-(2-Methoxyphenyl)pyrimidin-4-ylamino)-2-(4-methylpiperazin-1-yl)benzenesulfonamide] | <1.5
COc1ccc(Nc2cc(-c3ccccc3O)ncn2)cc1N [Example 70, 2-[6-(3-Amino-4-methoxy-phenylamino)-pyrimidin-4-yl]-phenol] | >10
COc1ccccc1-c1cc(Nc2ccc(Cl)c(C(=O)N3CCCC3)c2)ncn1 [Example 15, (2-Chloro-5-(6-(2-methoxyphenyl)pyrimidin-4-ylamino)phenyl)(pyrrolidin-1-yl)methanone] | >0.5
CNC(=O)c1cc(Nc2cc(-c3ccccc3OC)ncn2)ccc1OC [Example 25, 2-Methoxy-5-(6-(2-methoxyphenyl)pyrimidin-4-ylamino)-N-methylbenzamide] | >0.5
COc1cc(Nc2cc(-c3ccccc3OC)ncn2)ccc1N [Example 59, 2-Methoxy-N^4-[6-(2-methoxy-phenyl)-pyrimidin-4-yl]-benzene-1,4-diamine] | >2
CCOC(=O)c1cc(Nc2cc(-c3ccccc3OC)ncn2)ccc1N1CCOCC1 [Example 18, Ethyl 5-(6-(2-methoxyphenyl)pyrimidin-4-ylamino)-2-morpholinobenzoate] | >0.5
COc1ccccc1-c1cc(Nc2ccc(O)c([N+](=O)[O-])c2)ncn1 [Example 12, 4-(6-(2-methoxyphenyl)pyrimidin-4-ylamino)-2-nitrophenol] | >1.5
COc1ccccc1-c1cc(Nc2ccc(Cl)c(C(N)=O)c2)ncn1 [Example 44, 2-Chloro-5-(6-(2-methoxyphenyl)pyrimidin-4-ylamino)benzamide] | >5
CCOc1cc(F)ccc1-c1cc(Nc2ccc(OC)c(C(N)=O)c2)ncn1 [Example 130, 5-[6-(2-Ethoxy-4-fluoro-phenyl)-pyrimidin-4-ylamino]-2-methoxy-benzamide] | 15
COc1ccc(F)cc1-c1cc(Nc2cc(F)c(OC)c(C(N)=O)c2)ncn1 [Example 140, 3-Fluoro-5-[6-(5-fluoro-2-methoxy-phenyl)-pyrimidin-4-ylamino]-2-methoxy-benzamide] | >20
COc1ccc(Nc2cc(-c3cc(F)ccc3OC)ncn2)cc1O [Example 122, 5-[6-(5-Fluoro-2-methoxy-phenyl)-pyrimidin-4-ylamino]-2-methoxy-phenol] | >2
COc1ccc(Nc2cc(-c3ccccc3OC)ncn2)cc1F [Example 22, N-(3-Fluoro-4-methoxyphenyl)-6-(2-methoxyphenyl)pyrimidin-4-amine] | >0.5
